According to US20240209098A1 (NAVIGO PROTEINS, published 2024):

T1: VEGF-A (VEGF-165) (human, UniProt P15692-4 27-191)
T1 construct: The isoforms are said to be active as dimers; also called vascular endothelial growth factor
T1 sequence (looked up): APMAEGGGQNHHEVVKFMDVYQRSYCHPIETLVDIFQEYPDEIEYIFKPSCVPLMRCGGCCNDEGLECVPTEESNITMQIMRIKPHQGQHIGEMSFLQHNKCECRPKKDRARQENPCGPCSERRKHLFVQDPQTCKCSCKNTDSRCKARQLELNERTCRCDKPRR

B1: CID 218480, fusion protein n[Col2-BP1_as dimer, VEGF-BP - Col2-BP1 as dimer]c (Fc fusion)
chain: IAAKFDEAQSAADSEILHLPNLTEQQRHYFRRWLSDDPSVSTHILTQAQHLNDDQAPKIAAKFDEAQSAADSEILHLPNLTEQQRHYFRRWLSDDPSVSTHILTQAQHLNDDQAPKGGGGSGGGGSGGGGSSDTGRPFVEMYSEIPEIIHMTEGRELVIPCRVTSPNITVTLKKFPLDTLIPDGKRIIWDSRKGFIISNATYKEIGLLTCEATVNGHLYKTNYLTHRQTNTIIDVVLSPSHGIELSVGEKLVLNCTARTELNVGIDFNWEYPSSKHQHKKLVNRDLKTQSGSEMKKFLSTLTIDGVTRSDQGLYTCAASSGLMTKKNSTFVRVHEK[skipping human IgG1 Fc]GGGSGGGGSGGGGSIAAKFDEAQQAADKEILHLPNLTEQQRNYFRQWLRDDPSVSPTVLGTAQQLNDSQAPKIAAKFDEAQQAADKEILHLPNLTEQQRNYFRQWLRDDPSVSPTVLGTAQQLNDSQAPKSAWSHPQFEK
notes: Col2-BP1 at both the N- and C-terminus, Aflibercept in the middle
B2: CID 212710, fusion protein n[VEGF-BP, Col2-BP2 as dimer]c (Fc fusion)
chain: SDTGRPFVEMYSEIPEIIHMTEGRELVIPCRVTSPNITVTLKKFPLDTLIPDGKRIIWDSRKGFIISNATYKEIGLLTCEATVNGHLYKTNYLTHRQTNTIIDVVLSPSHGIELSVGEKLVLNCTARTELNVGIDFNWEYPSSKHQHKKLVNRDLKTQSGSEMKKFLSTLTIDGVTRSDQGLYTCAASSGLMTKKNSTFVRVHEK[skipping human IgG1 Fc]GGGSGGGGSGGGGSIAAKFDEAQQAADKEILHLPNLTEQQRNYFRQWLRDDPSVSPTVLGTAQQLNDSQAPKIAAKFDEAQQAADKEILHLPNLTEQQRNYFRQWLRDDPSVSPTVLGTAQQLNDSQAPK
notes: Aflibercept at the N-terminus, Col2-BP2 at the C-terminus; also called fusion protein 212710
B3: CID 213350, control fusion protein n[VEGF-BP, non Col2 BP PAdelFc as dimer]c (Fc fusion)
chain: SDTGRPFVEMYSEIPEIIHMTEGRELVIPCRVTSPNITVTLKKFPLDTLIPDGKRIIWDSRKGFIISNATYKEIGLLTCEATVNGHLYKTNYLTHRQTNTIIDVVLSPSHGIELSVGEKLVLNCTARTELNVGIDFNWEYPSSKHQHKKLVNRDLKTQSGSEMKKFLSTLTIDGVTRSDQGLYTCAASSGLMTKKNSTFVRVHEK[skipping human IgG1 Fc]GGGSGGGGSGGGGSIAAKFDEAQSAADSEILHLPNLTEEQRNAFRQSLSDDPSVSLEVLGEAQKLNDSQAPKIAAKFDEAQSAADSEILHLPNLTEEQRNAFRQSLSDDPSVSLEVLGEAQKLNDSQAPK

Tests used:
Experiment in all cases: SPR (Biacore 3000), target immobilised on CM5 chip, fusion protein as analyte, Langmuir 1:1
VEGF-A (VEGF-165) = biological target: T1, VEGF-A (VEGF-165)
Protocol: (§1) Binding of Type II collagen or VEGF-A was evaluated by SPR measurements using Biacore 3000 (GE Healthcare). Purified Type II collagen was obtained by Chondrex.inc and VEGF-A (VEGF-165) was obtained by Millipore. The purified target proteins were immobilized on a CM-5 sensor chip (GE Healthcare) using NHS/EDC after PDEA activation resulting in about 1000 RU. The chip was equilibrated with SPR running buffer (PBS 0.05% Tween pH 7.3).
(§2) The analytes were applied to the chip in serial dilutions with a flow rate of 30 μl/min. The association was performed for 120 seconds and the dissociation for 120 seconds. After each run, the chip surface was regenerated with 30 μl regeneration buffer (10 mM glycine pH 2.0) and equilibrated with running buffer. Upon binding, fusion proteins were accumulated on the surface increasing the refractive index. This change in the refractive index was measured in real time and plotted as response or resonance units versus time. Data evaluation was operated via the BIAevaluation 3.0 software, provided by the manufacturer, by the use of the Langmuir 1:1 model (RI=0). Evaluated dissociation constants (KD) were standardized against the immobilized fusion protein and indicated. Shown is the change in refractive index measured in real time and plotted as response or resonance unit [RU] versus time [sec].

rabbit Type II collagen = biological target: T2, rabbit Type II collagen (rabbit)
T2 construct: also called rbCol2; rbColII
Protocol: as §1, §2

pig Type II collagen = biological target: T3, pig Type II collagen (pig)
T3 construct: also called pCol2; pColII
Protocol: as §1, §2

Binder | Kd (VEGF-A (VEGF-165)) [nM] | Kd (rabbit Type II collagen) [nM] | Kd (pig Type II collagen) [nM]
B1 | 9 |  | 
B2 | 2.54 | 4 | 6.25
B3 | 1.93 |  | 
